# Results published in paper PMC7819943, “Rice protein-binding microarrays: a tool to detect cis-acting elements near promoter regions in rice”.
# Some of the results follow.
# Biological target: T1, OsWOX13 (Oryza sativa, UniProt Q5QMM3 1-267)
# T1 sequence: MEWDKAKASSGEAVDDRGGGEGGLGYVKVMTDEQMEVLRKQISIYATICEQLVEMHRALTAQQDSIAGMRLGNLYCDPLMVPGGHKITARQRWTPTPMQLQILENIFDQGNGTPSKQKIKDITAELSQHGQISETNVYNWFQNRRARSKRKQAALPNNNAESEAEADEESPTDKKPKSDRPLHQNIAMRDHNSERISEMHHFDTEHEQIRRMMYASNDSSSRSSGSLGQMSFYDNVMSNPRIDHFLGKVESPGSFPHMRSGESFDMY
# Test: protein-binding microarray (RPBM); PBS, 2% BSA, 51.3 ng/ul salmon testes DNA, 50 uM zinc acetate, 200 nM TF, 25 C, 1 h; high values mean tight binding
# Conditions: protein: recombinant; tags: N-terminal polyhistidine and DsRed monomer fusion (pET32a); label: CyDye5-dUTP incorporated in the synthesized complementary strand; 3' TTTTT single-stranded linker to array surface; dsDNA, one strand shown
# Summary of the method: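 Using Ni–NTA, transcription factors fused N-terminally to polyhistidine and DsRed were purified after expression in E. coli BL21-CodonPlus. These were incubated at 200 nM with a blocked, double-stranded custom Agilent array for 1 h at 25 °C in a buffer containing 50 µM zinc acetate, and the array was washed. The binding signal is per-feature fluorescence intensity (arbitrary units) on an Axon 4000B scanner.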
row,Sequence,binding signal
1,ACTTGCATGCTTAATTGATTTAGTTGGTGACCTTATATCTCGGAGTCACCTAGTGCAG,37800 fluorescence intensity (a.u.)
2,CCTAGTCAATCCCCGGTATGAAGATTGTATCTCCCTTCGTCGGAGTCACCTAGTGCAG,7490 fluorescence intensity (a.u.)
3,AATTAATTAGCTCTCCTGCACATGCATGGTCCCTCACTGACGGAGTCACCTAGTGCAG,23300 fluorescence intensity (a.u.)
4,CCAAAATTGCAATTAGCCCCTTGCCGCCCTCTCGCAATTTCGGAGTCACCTAGTGCAG,34500 fluorescence intensity (a.u.)
5,GTTAGATGGGATTAGTGAACTTGAGCATCAGGGTCAGTGGCGGAGTCACCTAGTGCAG,4560 fluorescence intensity (a.u.)
6,CTTGAATTCTCATAATTGGTTCTAGGGCTAATTTTGGGTGCGGAGTCACCTAGTGCAG,11700 fluorescence intensity (a.u.)
7,CTAATAAACAAGTTGACAGTAACGTACACTATTATCATGCCGGAGTCACCTAGTGCAG,9140 fluorescence intensity (a.u.)
8,TTTCTTTTCTATTCAATCATGTATCATGAATGTGTTGAACCGGAGTCACCTAGTGCAG,13700 fluorescence intensity (a.u.)
9,ATCCATCTTTCATCTTAATTTGTGAACAATATGATGGCACCGGAGTCACCTAGTGCAG,3890 fluorescence intensity (a.u.)
10,GGACGCTTAATTATGGTGTTCATCTGTTCGATATGGTCCACGGAGTCACCTAGTGCAG,13200 fluorescence intensity (a.u.)
11,TCCGACTTGACTGCTATAAACTGATGACTCGTCGAAAAGCCGGAGTCACCTAGTGCAG,16100 fluorescence intensity (a.u.)
12,TCATTTGCTAATTAATGAATCCAGCGAGATCGACTGACGACGGAGTCACCTAGTGCAG,6560 fluorescence intensity (a.u.)
13,TTTCATTTCTATGATTGAATTATACACAGTGGCATTTACACGGAGTCACCTAGTGCAG,9980 fluorescence intensity (a.u.)
14,TTGGTTCCTATGCTTAAACTGGCTGTAAATTTACAGCCCGCGGAGTCACCTAGTGCAG,3410 fluorescence intensity (a.u.)
15,CAATCTGTCATCTCTTTACCAGTCTCATTGACATGTGGGCCGGAGTCACCTAGTGCAG,3250 fluorescence intensity (a.u.)
16,GATGAAATCAATCAACGAGATATATAAGCAGATAATACATCGGAGTCACCTAGTGCAG,15200 fluorescence intensity (a.u.)
17,TTATGGTGGAAATCACGTGTCTGATTCTTGATTTTGTTAACGGAGTCACCTAGTGCAG,18800 fluorescence intensity (a.u.)
18,AATTAAATTTAAAGTCCATAAATTATAGAATTGACTAAAACGGAGTCACCTAGTGCAG,6900 fluorescence intensity (a.u.)
19,TTTAATTAAATATTATATATAATTGTTTTAAAGGAAAATGCGGAGTCACCTAGTGCAG,45800 fluorescence intensity (a.u.)
20,GCGGGTGATTACAAGACGGACGGGAGAGCGATCACACGACCGGAGTCACCTAGTGCAG,5010 fluorescence intensity (a.u.)
21,TTTAGACAAATGAGATTAATATGGGTTAATTTTGTGGGAACGGAGTCACCTAGTGCAG,8720 fluorescence intensity (a.u.)
22,CCTAAATTAGGCTTACCAATATTTGGCAATTTCAATAGTGCGGAGTCACCTAGTGCAG,28200 fluorescence intensity (a.u.)
23,TTTTGATTACTCATATAATCACCTTGTTATTTCTTTATATCGGAGTCACCTAGTGCAG,11600 fluorescence intensity (a.u.)
24,TGCTTGATGGGACTATTAAAGATTCCTCGCTCAATTGACACGGAGTCACCTAGTGCAG,15700 fluorescence intensity (a.u.)
25,CCTAAGAAAGACATTTGGATAATTGGCAAACCTAAAAGTGCGGAGTCACCTAGTGCAG,9080 fluorescence intensity (a.u.)
26,GACAAATTGAATGTTTAACAAACGTGAGACACCGGGAAAGCGGAGTCACCTAGTGCAG,18200 fluorescence intensity (a.u.)
27,TTTCACAAAATTGAATAAGATAAACGGTCAAATATGTGCTCGGAGTCACCTAGTGCAG,4560 fluorescence intensity (a.u.)

row,Sequence,binding signal
1,CGGACATGTTAGTTGTTTAAATTGAAGGCAATGTATTTCTCGGAGTCACCTAGTGCAG,3420 fluorescence intensity (a.u.)
2,GTATGCAATTAATTAAGTACGTGGAAGCTTGTTTTCTGTACGGAGTCACCTAGTGCAG,7680 fluorescence intensity (a.u.)
3,CGAGAAATTTTAATCACAATAGGTAGGCTGTGTTAAGTTCCGGAGTCACCTAGTGCAG,5650 fluorescence intensity (a.u.)
4,GGTATGATTCAATTAATTCTAGATTAAAATATACTATCTCCGGAGTCACCTAGTGCAG,25800 fluorescence intensity (a.u.)
5,TCTGATTCGCTGAATTTCTGTCAACCTCAAATCTTCTGAACGGAGTCACCTAGTGCAG,4230 fluorescence intensity (a.u.)
6,ATATATATATATATATATATATTTTGTCTTGAGTGGTTTGCGGAGTCACCTAGTGCAG,12100 fluorescence intensity (a.u.)
7,CGTAATTGTTGGGCTACTGCGGTTTGAATGCTATGACGAGCGGAGTCACCTAGTGCAG,30300 fluorescence intensity (a.u.)
8,TTAATTGCTTGGTTTACTGACCATTTCCACTTGGAAAACTCGGAGTCACCTAGTGCAG,5130 fluorescence intensity (a.u.)
9,TTAAATGATTCATCTTTCAGTACTTGGTGCAGTCTCCTTGCGGAGTCACCTAGTGCAG,4560 fluorescence intensity (a.u.)
10,TTAAAATTTCATCAGTGATAGCTCGTATTAGCATGTAAATCGGAGTCACCTAGTGCAG,4620 fluorescence intensity (a.u.)
11,TGATGACTGGTAGCGCCTTGCCACCACCAACTGCACGGTGCGGAGTCACCTAGTGCAG,4540 fluorescence intensity (a.u.)
12,ATTAGGAGATTGACTTCGCATGATCTGACGGCTATGAAGCCGGAGTCACCTAGTGCAG,15600 fluorescence intensity (a.u.)
13,CTAATTAATCCATGATTAGCCTATGTGATGCTACAGTAAACGGAGTCACCTAGTGCAG,28300 fluorescence intensity (a.u.)
14,ATATTTAATTATTGGTTTGATGGAACTAACTTAGTACTGTCGGAGTCACCTAGTGCAG,38400 fluorescence intensity (a.u.)
15,AAATGTCTTGTAGATTGATATATTACATGGAACAAAATTTCGGAGTCACCTAGTGCAG,3240 fluorescence intensity (a.u.)
16,GACTTCAATTGACATAAACAGGCATTGGTCCTTGCTCGAGCGGAGTCACCTAGTGCAG,20000 fluorescence intensity (a.u.)
17,AATGGGAACTAATGGGCCGGATTGACTACTTTGCTACATTCGGAGTCACCTAGTGCAG,3240 fluorescence intensity (a.u.)
18,GAACTGACATGTGACGATTGACCAACACTGGCACAGGGACCGGAGTCACCTAGTGCAG,6820 fluorescence intensity (a.u.)
19,TTCATAATTTTCACTTTAAAATACATAGTTTTACACATGTCGGAGTCACCTAGTGCAG,8300 fluorescence intensity (a.u.)
20,ATTATTGTAACTAAATTTTGAACATATGATTTCTGCACGGCGGAGTCACCTAGTGCAG,8450 fluorescence intensity (a.u.)
21,TCTAGATTTGACTAAATTAAGTAGTTGTTTAACTAGTATACGGAGTCACCTAGTGCAG,14000 fluorescence intensity (a.u.)
22,CGCACTAATGGAAATTAAGGAGGTAGCCAAGCCGATCCCACGGAGTCACCTAGTGCAG,22300 fluorescence intensity (a.u.)
23,TGGAGGAGAGTAAATGAGCAATCAGGCCCACGGCCCAATCCGGAGTCACCTAGTGCAG,3370 fluorescence intensity (a.u.)
24,TACTCCAAGGTGCAGGCGTCGCTGGTGCAGAGCCTCGGCGCGGAGTCACCTAGTGCAG,7060 fluorescence intensity (a.u.)
25,AATTAATCATGCAATAAAACAAATTTCGTTTTGCGTGCTACGGAGTCACCTAGTGCAG,6310 fluorescence intensity (a.u.)
26,CCATGATTGATCGAAAGTAAACGGAGAGGCCACATGCATGCGGAGTCACCTAGTGCAG,50100 fluorescence intensity (a.u.)
27,AACAATTGATTAGTACAAAATGGTACTTCCTCCGTTTCACCGGAGTCACCTAGTGCAG,56600 fluorescence intensity (a.u.)
